Patent publication US20240076343A1 (CEPHALON, published 2024)

T1: recombinant human CD25 extracellular domain, C-terminal poly-histidine tagged (human, UniProt P01589 22-240)
T1 construct: also called CD25/IL-2Rα; IL-2Rα
T1 sequence: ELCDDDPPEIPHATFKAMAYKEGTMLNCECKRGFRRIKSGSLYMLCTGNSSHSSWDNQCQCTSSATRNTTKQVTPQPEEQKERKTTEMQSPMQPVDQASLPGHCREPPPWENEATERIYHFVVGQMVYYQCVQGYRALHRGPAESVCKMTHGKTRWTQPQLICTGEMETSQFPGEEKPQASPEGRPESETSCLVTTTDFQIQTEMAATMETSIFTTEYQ

T2: intermediate-affinity hIL-2 receptor complex (IL-2Rβγ) on TF1+IL-2Rβ cells (human, UniProt P14784 27-551; P31785 23-369)
T2 sequence 1: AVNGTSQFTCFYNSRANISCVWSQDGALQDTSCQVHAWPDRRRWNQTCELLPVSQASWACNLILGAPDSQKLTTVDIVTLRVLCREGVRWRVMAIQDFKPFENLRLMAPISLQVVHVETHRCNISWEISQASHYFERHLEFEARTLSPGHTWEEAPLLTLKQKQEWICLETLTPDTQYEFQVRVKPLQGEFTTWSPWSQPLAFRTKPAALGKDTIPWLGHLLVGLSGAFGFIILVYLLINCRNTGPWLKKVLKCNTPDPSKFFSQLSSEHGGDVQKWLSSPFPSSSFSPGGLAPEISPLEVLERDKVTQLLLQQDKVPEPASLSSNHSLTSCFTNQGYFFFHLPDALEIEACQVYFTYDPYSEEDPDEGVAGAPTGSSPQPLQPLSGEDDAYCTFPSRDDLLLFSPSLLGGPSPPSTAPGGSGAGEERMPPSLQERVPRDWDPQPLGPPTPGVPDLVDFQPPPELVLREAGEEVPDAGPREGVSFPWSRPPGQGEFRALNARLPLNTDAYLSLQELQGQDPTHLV
T2 sequence 2: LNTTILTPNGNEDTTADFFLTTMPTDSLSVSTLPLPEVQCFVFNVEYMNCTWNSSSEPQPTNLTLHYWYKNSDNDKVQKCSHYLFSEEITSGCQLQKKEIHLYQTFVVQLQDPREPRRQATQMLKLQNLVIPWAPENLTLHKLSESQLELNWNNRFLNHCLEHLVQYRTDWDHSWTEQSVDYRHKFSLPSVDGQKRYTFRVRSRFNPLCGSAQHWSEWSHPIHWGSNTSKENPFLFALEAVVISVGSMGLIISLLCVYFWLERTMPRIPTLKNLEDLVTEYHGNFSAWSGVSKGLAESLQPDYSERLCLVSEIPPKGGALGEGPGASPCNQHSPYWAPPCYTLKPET

T3: recombinant human CD122 extracellular domain, C-terminal poly-histidine tagged (human, UniProt P14784 27-240)
T3 construct: also called CD122/IL-2Rβ; IL-2Rβ
T3 sequence: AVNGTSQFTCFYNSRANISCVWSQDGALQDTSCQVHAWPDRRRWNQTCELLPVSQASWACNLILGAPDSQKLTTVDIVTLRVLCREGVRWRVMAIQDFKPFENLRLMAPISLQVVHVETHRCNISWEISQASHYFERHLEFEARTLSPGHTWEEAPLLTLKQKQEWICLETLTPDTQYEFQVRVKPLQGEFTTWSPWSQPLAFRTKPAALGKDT

T4: intermediate affinity hIL-2 receptor complex (IL-2Rβγ) on TF1+IL-2Rβ cells (human, UniProt P14784 27-551; P31785 23-369)
T4 sequence 1: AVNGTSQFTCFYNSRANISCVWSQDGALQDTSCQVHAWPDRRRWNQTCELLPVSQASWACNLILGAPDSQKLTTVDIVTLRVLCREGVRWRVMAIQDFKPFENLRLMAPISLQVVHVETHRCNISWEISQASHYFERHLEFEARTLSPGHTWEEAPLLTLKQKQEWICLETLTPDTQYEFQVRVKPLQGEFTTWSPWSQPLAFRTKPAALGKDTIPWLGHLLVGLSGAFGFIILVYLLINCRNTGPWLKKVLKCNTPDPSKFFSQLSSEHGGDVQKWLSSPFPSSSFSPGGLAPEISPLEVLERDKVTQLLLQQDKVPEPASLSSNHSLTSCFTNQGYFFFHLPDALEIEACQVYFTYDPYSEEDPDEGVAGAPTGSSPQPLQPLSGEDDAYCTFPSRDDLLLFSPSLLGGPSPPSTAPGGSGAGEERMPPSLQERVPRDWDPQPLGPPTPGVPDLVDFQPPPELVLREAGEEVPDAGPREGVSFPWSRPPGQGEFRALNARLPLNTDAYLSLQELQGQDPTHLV
T4 sequence 2: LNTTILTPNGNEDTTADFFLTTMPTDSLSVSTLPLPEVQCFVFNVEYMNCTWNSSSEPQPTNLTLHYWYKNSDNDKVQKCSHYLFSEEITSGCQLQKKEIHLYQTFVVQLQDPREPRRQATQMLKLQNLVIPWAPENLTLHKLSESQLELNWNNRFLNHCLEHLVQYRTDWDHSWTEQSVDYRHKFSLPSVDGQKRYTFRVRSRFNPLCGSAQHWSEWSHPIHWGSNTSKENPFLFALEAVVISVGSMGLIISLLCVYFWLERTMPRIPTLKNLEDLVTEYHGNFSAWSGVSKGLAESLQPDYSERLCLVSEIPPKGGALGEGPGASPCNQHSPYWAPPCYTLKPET

T5: high-affinity hIL-2 receptor (IL-2Rαβγ) on NK-92 cells (human, UniProt P01589 22-272; P14784 27-551; P31785 23-369)
T5 sequence 1: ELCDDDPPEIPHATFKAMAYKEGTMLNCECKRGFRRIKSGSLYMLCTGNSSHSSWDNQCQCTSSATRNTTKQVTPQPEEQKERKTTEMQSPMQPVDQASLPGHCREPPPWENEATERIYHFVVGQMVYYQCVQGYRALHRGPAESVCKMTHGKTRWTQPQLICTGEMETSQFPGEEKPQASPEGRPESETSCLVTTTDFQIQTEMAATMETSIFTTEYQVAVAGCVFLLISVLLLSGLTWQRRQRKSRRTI
T5 sequence 2: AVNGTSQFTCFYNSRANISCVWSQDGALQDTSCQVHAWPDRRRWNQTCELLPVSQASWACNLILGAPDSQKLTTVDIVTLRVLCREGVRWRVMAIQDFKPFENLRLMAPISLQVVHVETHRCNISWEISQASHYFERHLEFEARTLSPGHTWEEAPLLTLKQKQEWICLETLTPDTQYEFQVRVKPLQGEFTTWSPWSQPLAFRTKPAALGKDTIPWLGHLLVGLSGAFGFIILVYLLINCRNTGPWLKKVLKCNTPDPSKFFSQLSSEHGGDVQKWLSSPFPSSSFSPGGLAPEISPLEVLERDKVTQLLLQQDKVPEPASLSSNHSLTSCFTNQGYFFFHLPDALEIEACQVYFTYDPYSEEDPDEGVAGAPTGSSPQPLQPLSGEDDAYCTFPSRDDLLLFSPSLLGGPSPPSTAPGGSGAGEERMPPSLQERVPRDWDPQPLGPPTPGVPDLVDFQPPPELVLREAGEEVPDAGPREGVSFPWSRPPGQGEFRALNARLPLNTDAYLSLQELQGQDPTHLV
T5 sequence 3: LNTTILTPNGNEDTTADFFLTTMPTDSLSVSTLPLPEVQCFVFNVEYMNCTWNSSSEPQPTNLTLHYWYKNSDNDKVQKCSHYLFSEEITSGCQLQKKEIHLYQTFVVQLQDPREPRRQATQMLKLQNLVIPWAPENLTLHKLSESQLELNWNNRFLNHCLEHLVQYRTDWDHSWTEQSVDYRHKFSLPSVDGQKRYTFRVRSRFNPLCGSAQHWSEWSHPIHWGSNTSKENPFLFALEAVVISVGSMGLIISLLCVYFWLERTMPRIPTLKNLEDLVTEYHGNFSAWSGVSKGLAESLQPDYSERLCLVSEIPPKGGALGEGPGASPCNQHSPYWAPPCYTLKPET


Experiments:
[1] = biological target: T1, recombinant human CD25 extracellular …; assay: BLI (Octet)
[2] = biological target: T2, intermediate-affinity hIL-2 receptor …; assay: cell-based or functional assay
[3] = biological target: T3, recombinant human CD122 extracellular …; assay: BLI (Octet)
[4] = biological target: T4, intermediate affinity hIL-2 receptor …; assay: cell-based or functional assay
[5] = biological target: T5, high-affinity hIL-2 receptor (IL-2Rαβγ) …; assay: cell-based or functional assay

binding result [1] | Fold change from hIL-2 (TF1 + IL-2Rβ), fixed concentration pSTAT5 screen [2] [fold] | Kd [3] [nM] | koff [3] [s⁻¹] | kon [3] [M⁻¹ s⁻¹] | Fold change from hIL-2 (TF1 + IL-2Rβ) [4] [fold] | Fold change from hIL-2 (NK-92) [5] [fold] | Binder
no binding (tested: 300 nM) | 1 | 7.47 | 0.00338 | 452000 |  |  | 1H3-hIgG1-L6-hIL-2 (R38D/E61R/K43E) (other, Built as m13) heavy: EVQLVESGGGLVQPGRSLKLSCAVSGFTFSDYAMAWVRQAPKKGLEWVATISYDGSRTYYRDSVKGRFTISRDNAKITLYLQMDSLRSEDTATYYCARHGSGYFDYWGQGVMVTVSS[not shown - human IgG1 constant region]SGGGGSAPTSSSTKKTQLQLEHLLLDLQMILNGINNYKNPKLTDMLTFEFYMPKKATELKHLQCLERELKPLEEVLNLAQSKNFHLRPRDLISNINVIVLELKGSETTFMCEYADETATIVEFLNRWITFCQSIISTLT light: DTVLTQSPALAVSPGERVTISCRASESVRTGVHWYQQKPGQQPKLLIYGASNLESGVPARFSGSGSGTDFTLTIDPVEADDTATYFCQQSWNDPFTFGSGTKLEIKRTVAAPSVFIFPPSDEQLKSGTASVVCLLNNFYPREAKVQWKVDNALQSGNSQESVTEQDSKDSTYSLSSTLTLSKADYEKHKVYACEVTHQGLSSPVTKSFNRGEC
 |  |  |  |  | 3 | 15 | 1H3-hIgG1-L6-hIL-2 (D20A/R38E) (other) heavy: EVQLVESGGGLVQPGRSLKLSCAVSGFTFSDYAMAWVRQAPKKGLEWVATISYDGSRTYYRDSVKGRFTISRDNAKITLYLQMDSLRSEDTATYYCARHGSGYFDYWGQGVMVTVSS[not shown - about 450 residues with a human IgG1 Fc and changes] light: DTVLTQSPALAVSPGERVTISCRASESVRTGVHWYQQKPGQQPKLLIYGASNLESGVPARFSGSGSGTDFTLTIDPVEADDTATYFCQQSWNDPFTFGSGTKLEIKRTVAAPSVFIFPPSDEQLKSGTASVVCLLNNFYPREAKVQWKVDNALQSGNSQESVTEQDSKDSTYSLSSTLTLSKADYEKHKVYACEVTHQGLSSPVTKSFNRGEC
 |  |  |  |  | 3 | 16 | 1H3-hIgG1-L6-hIL-2 (D20A/R38E/C125A) (other) heavy: EVQLVESGGGLVQPGRSLKLSCAVSGFTFSDYAMAWVRQAPKKGLEWVATISYDGSRTYYRDSVKGRFTISRDNAKITLYLQMDSLRSEDTATYYCARHGSGYFDYWGQGVMVTVSS[not shown - human IgG1 constant region]SGGGGSAPTSSSTKKTQLQLEHLLLALQMILNGINNYKNPKLTEMLTFKFYMPKKATELKHLQCLEEELKPLEEVLNLAQSKNFHLRPRDLISNINVIVLELKGSETTFMCEYADETATIVEFLNRWITFAQSIISTLT light: DTVLTQSPALAVSPGERVTISCRASESVRTGVHWYQQKPGQQPKLLIYGASNLESGVPARFSGSGSGTDFTLTIDPVEADDTATYFCQQSWNDPFTFGSGTKLEIKRTVAAPSVFIFPPSDEQLKSGTASVVCLLNNFYPREAKVQWKVDNALQSGNSQESVTEQDSKDSTYSLSSTLTLSKADYEKHKVYACEVTHQGLSSPVTKSFNRGEC
